Data reported in paper PMC10284917.
No constants are given. Whether binding was seen depends on the method and setting. Binding seen in cells or lysates may run through a third protein. Some binding calls cover weakened binding; strength is not graded here. Each block holds one substance with its values, some of them ahead of it.

Protein sequences, listed by entry. Tags and fused reporters are not part of them.
UniProt Q27J81: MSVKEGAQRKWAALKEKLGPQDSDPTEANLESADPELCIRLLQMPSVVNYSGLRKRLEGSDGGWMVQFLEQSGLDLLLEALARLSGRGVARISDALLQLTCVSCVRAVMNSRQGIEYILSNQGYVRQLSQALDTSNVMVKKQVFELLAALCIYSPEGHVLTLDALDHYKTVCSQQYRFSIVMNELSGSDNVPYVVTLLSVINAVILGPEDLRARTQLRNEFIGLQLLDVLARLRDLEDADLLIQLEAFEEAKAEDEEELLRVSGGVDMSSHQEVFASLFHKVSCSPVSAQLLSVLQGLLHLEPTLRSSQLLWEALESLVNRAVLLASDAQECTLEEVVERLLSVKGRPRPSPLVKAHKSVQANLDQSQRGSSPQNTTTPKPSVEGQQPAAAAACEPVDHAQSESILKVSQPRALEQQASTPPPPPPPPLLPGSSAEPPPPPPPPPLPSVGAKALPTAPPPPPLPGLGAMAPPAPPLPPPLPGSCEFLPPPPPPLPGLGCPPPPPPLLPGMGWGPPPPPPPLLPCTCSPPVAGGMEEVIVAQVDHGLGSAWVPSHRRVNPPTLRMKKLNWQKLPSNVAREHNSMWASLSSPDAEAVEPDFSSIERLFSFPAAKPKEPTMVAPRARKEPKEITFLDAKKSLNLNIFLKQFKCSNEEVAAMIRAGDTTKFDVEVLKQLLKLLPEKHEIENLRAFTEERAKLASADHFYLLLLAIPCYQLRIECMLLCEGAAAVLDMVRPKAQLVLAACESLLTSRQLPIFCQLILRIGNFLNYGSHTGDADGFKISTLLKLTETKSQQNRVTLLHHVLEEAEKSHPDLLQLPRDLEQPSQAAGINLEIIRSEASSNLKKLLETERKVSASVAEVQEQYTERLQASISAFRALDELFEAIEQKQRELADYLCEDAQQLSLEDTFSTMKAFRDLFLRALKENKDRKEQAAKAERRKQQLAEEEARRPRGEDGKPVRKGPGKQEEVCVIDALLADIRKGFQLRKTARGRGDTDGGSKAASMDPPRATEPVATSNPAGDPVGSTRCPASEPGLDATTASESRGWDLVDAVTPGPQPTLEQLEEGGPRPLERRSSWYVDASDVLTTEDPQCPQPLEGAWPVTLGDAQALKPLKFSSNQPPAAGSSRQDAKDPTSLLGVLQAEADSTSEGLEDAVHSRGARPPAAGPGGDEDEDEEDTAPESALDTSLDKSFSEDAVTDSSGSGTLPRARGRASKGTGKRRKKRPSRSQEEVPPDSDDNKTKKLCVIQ
UniProt Q969H0: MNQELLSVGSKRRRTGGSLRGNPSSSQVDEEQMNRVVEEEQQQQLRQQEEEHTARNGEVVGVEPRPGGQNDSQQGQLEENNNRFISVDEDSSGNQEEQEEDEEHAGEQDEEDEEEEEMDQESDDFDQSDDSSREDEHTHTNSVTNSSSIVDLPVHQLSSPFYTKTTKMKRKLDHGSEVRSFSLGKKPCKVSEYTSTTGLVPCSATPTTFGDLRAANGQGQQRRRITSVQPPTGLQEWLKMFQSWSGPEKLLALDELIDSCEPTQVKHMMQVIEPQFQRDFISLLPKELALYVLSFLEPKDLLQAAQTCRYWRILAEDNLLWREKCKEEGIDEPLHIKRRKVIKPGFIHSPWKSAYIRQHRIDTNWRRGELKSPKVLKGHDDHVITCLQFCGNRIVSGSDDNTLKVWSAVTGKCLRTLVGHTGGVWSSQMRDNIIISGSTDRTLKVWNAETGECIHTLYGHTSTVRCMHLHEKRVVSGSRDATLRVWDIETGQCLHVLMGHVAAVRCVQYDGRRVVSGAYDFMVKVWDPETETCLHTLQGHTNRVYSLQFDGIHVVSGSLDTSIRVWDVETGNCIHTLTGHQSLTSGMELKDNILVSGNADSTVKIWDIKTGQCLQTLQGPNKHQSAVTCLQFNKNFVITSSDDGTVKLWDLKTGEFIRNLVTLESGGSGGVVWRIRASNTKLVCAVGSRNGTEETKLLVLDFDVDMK
UniProt O43791: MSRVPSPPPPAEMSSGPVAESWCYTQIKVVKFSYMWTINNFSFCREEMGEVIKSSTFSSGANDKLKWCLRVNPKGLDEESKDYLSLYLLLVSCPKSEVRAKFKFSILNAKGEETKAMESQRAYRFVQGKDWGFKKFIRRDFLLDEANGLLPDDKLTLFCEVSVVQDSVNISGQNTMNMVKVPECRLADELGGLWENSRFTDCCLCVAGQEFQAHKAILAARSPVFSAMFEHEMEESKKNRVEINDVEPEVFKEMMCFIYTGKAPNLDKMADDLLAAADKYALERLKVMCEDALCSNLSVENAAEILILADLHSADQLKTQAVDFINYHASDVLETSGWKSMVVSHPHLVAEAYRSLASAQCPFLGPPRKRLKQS

Legend:
[1] = target: FLAG-INF2 (INF2-CAXX, ER-localized inverted formin 2) (UniProt Q27J81); experiment: co-IP; anti-FLAG M2 agarose beads, lysates (RIPA (Low) Lysis Buffer) of HEK-293T cells transfected with both constructs, 20 μM MG132 for 8 h before harvesting; 4 h at 4 °C; washed with BC100 buffer (20 mM Tris-Cl pH 7.9, 100 mM NaCl, 0.2 mM EDTA, 20% glycerol) with 0.2% Triton X-100; eluted with FLAG peptide; western blotting
[2] = target: T1, endogenous FBXO7 (AN3 CA cells) (human (endogenous in AN3 CA)) (UniProt Q9Y3I1); experiment: co-IP; endogenous proteins, AN3 CA cells lysed in RIPA (Low) lysis buffer; anti-FBXO7/IgG Protein A/G magnetic beads, 4 h at 4 °C; eluted with SDS-PAGE loading buffer; western blotting
T1 sequence: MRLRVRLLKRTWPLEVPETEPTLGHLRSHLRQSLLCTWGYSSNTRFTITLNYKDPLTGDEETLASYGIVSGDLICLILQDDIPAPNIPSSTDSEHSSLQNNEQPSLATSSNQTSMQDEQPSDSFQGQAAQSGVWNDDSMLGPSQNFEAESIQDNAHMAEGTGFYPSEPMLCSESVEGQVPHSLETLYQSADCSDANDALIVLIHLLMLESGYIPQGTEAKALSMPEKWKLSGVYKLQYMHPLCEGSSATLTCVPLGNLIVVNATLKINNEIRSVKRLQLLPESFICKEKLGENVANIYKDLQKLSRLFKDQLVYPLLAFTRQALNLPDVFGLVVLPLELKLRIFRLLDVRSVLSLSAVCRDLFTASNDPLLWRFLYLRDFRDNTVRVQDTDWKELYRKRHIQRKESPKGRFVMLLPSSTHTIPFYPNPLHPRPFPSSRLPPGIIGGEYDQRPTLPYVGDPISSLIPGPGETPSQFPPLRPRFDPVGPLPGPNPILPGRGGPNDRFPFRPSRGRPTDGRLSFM

[3] = target: FLAG-INF2 (INF2-CAXX, ER-localized inverted formin 2) (UniProt Q27J81); experiment: co-IP; anti-FLAG antibody, HEK-293T cells transfected with FLAG-INF2 plasmid or not; endogenous partners detected by western blotting

binding [1]: no binding
Substance: F-box and WD repeat domain-containing 7 (FBXW7) (from UniProt Q969H0 1-707)

binding [2]: binds
Substance: endogenous INF2 (AN3 CA cells) (from UniProt Q27J81 1-1249)

binding [3]: binds
Substance: endogenous SPOP (HEK-293T cells) (from UniProt O43791 1-374)
